Laboratory results reported in the antibiotic and cytotoxicity screens of Wong et al. (2023).
This is one part of the list.

Columns and labels:
HSkMC = human skeletal muscle cells; test: cytotoxicity call (relative viability < 0.9); conditions: 10 µM
HepG2 = test: cytotoxicity call (relative viability < 0.9); conditions: 10 µM
S. aureus RN4220 = test: growth inhibition call (relative growth <= 0.2); conditions: 50 µM

SMILES | cytotoxicity call (HSkMC) | cytotoxicity call (HepG2) | growth inhibition call (S. aureus RN4220)
C[C@@H]1CCCCO[C@@H](CN(C)Cc2ccc(C(=O)O)cc2)[C@H](C)CN([C@@H](C)CO)C(=O)c2cc(NC(=O)c3ccccc3)ccc2O1 | inactive | inactive | inactive
COc1cc(CO)c(CC(=O)NN)cc1OC | inactive | inactive | inactive
CO[C@@H]1CN(C)C(=O)c2cc(NC(=O)Nc3cccc(F)c3)ccc2OC[C@H](C)N(C(=O)Nc2c(C)noc2C)C[C@H]1C | inactive | inactive | inactive
Cn1nnnc1-c1ccco1 | inactive | inactive | inactive
C[C@@H]1CN([C@@H](C)CO)C(=O)Cc2cc(NC(=O)C3CC3)ccc2O[C@H]1CN(C)C(=O)Nc1ccc(F)cc1 | inactive | inactive | inactive
C[C@H](CO)N1C[C@H](C)[C@@H](CN(C)C(=O)Nc2ccc3c(c2)OCO3)Oc2ccc(NS(=O)(=O)c3cn(C)cn3)cc2C1=O | inactive | inactive | inactive
C[C@@H]1CCCCO[C@H](CN(C)S(=O)(=O)c2ccccc2)[C@H](C)CN([C@@H](C)CO)C(=O)c2cc(NS(=O)(=O)c3cn(C)cn3)ccc2O1 | inactive | inactive | inactive
Cc1ccc(S(=O)(=O)N(C)C[C@@H]2Oc3c(NC(=O)C4CCOCC4)cccc3C(=O)N([C@H](C)CO)C[C@H]2C)cc1 | inactive | inactive | inactive
COc1ccc(CNC(=O)C[C@@H]2CC[C@H]3[C@@H](COc4ccc(NC(=O)C(C)C)cc4C(=O)N3C)O2)cc1 | inactive | inactive | inactive
CC(C)(Sc1ccncc1-c1ccc(C#N)c2ccccc12)C(=O)O | inactive | inactive | inactive
C[C@H]1CN([C@@H](C)CO)S(=O)(=O)c2ccc(-c3cccc(C(=O)N(C)C)c3)cc2O[C@H]1CN(C)C(=O)Cc1ccccn1 | inactive | inactive | inactive
C[C@H](CO)N1C[C@H](C)[C@@H](CN(C)Cc2ccc(-c3ccccc3)cc2)Oc2c(NC(=O)Nc3ccc(C(F)(F)F)cc3)cccc2C1=O | inactive | inactive | inactive
CC1(C)[C@H](C(=O)O)CC[C@@]1(C)C(N)=O | inactive | inactive | inactive
C[C@@H]1CN([C@@H](C)CO)C(=O)c2cc(N(C)C)ccc2O[C@H]1CN(C)S(=O)(=O)c1ccc(Cl)cc1 | inactive | inactive | inactive
C[C@@H]1CCCCO[C@H](CN(C)C(=O)Nc2ccc(C(F)(F)F)cc2)[C@H](C)CN([C@H](C)CO)C(=O)c2cc(NS(=O)(=O)c3cccs3)ccc2O1 | inactive | inactive | inactive
C[C@@H]1CN([C@H](C)CO)C(=O)Cc2cc(NS(=O)(=O)c3cccs3)ccc2O[C@@H]1CN(C)Cc1ccc(-c2ccccc2)cc1 | inactive | inactive | inactive
O[C@H]1[C@H](O)[C@@H](O)[C@H](O)[C@@H](O)[C@H]1O | inactive | inactive | inactive
COCCNC(=O)C[C@@H]1CC[C@@H]2[C@@H](COc3ccc(NS(=O)(=O)c4ccc(Cl)cc4)cc3C(=O)N2C)O1 | inactive | inactive | inactive
C[C@@H]1CN([C@@H](C)CO)C(=O)Cc2cc(NC(=O)Cn3cnnn3)ccc2O[C@H]1CN(C)CC1CC1 | inactive | inactive | inactive
Clc1ccccc1C(c1ccccc1)(c1ccccc1)n1ccnc1 | active | inactive | inactive
CC(=O)n1cc([C@H]2C=C(C(=O)N3CCN(Cc4ccccc4)CC3)O[C@@H](OCc3ccc(COC(=O)NCCCCCC(=O)NO)cc3)C2)c2ccccc21 | inactive | inactive | inactive
COc1ccc2c3c([nH]c2c1)[C@H](CO)N(Cc1ccncc1)C[C@]13CCN(CC1)Cc1ccc(cc1)-c1ccccn1 | inactive | inactive | inactive
CC(C)NC(=O)N(C)C[C@@H]1Oc2ccc(NC(=O)C3CCCCC3)cc2CC(=O)N([C@@H](C)CO)C[C@@H]1C | inactive | inactive | inactive
COc1cc(O)cc(O)c1C(=O)c1ccccc1 | inactive | active | inactive
C[C@@H]1CN([C@H](C)CO)C(=O)c2cc(NC(=O)Cc3ccccc3)ccc2O[C@@H](C)CCCCO[C@H]1CN(C)C(=O)C1CCCCC1 | inactive | inactive | inactive
Cc1nnc(NCCc2ccccc2)n(N)c1=O | inactive | inactive | inactive
C[C@H]1CN([C@@H](C)CO)C(=O)c2cc(NC(=O)c3ccncc3)ccc2O[C@@H]1CN(C)S(=O)(=O)c1cn(C)cn1 | inactive | inactive | inactive
O=C(CN1CCOCC1)N[C@H]1CC[C@@H](CCNS(=O)(=O)c2ccccc2F)O[C@@H]1CO | inactive | inactive | inactive
O=C(O)[C@H](O)[C@@H](O)[C@H](O)[C@H](O)CO | inactive | inactive | inactive
